# Source: PubChem BioAssay AID1347073 (National Center for Advancing Translational Sciences (NCATS), 2019)
# Out of some 45,000 compounds screened, about 200 (0.44%) were called active. Inconclusive results (about 7%) are left out. Calls come from the whole dose curve; as a rule, active = well fitted activation curve with a large enough effect; inconclusive = small, poorly fitted or top-dose-only effect; inactive = no such curve, though single readings can be large or run the other way. Some of the results follow.
# Assay: qHTS of TDP-43 Inhibitors: NCGC Sytravon Library Screen; note: nearly all actives have a fitted effect of over 55% in size; for growth rescue (activation): 0% is about no effect
# Settings: yeast TDP-43 toxicity rescue, BacTiter-Glo growth, 24 h; series mostly up to 46.1 µM; growth rescue (activation): at the top concentration
# Summary of the method: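 TDP-43-expressing yeast, pregrown in raffinose, seeded at OD600 0.02 in galactose medium with compound for 24 hr at 30 deg C. Growth read by BacTiter-Glo luminescence, so rescue of toxicity appears as activation.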
# Potency is the fitted concentration of half-maximal effect.
SMILES,growth rescue (activation),Potency
COc1ccc2c(c1)c(/C=N/Nc1nc3ccccc3[nH]1)c(C)n2C,inactive: 0.599%,–
CCCNC(=O)NC(=O)COC(=O)CNS(=O)(=O)/C=C/c1ccccc1,inactive: 1.02%,–
CCNc1c(NS(=O)(=O)c2ccc(OC)cc2)c(=O)oc2ccccc12,inactive: 8.2%,–
COc1ccccc1NC(=O)C(=O)NCc1ccccc1Cl,inactive: 15.4%,–
COc1cc(NC(=O)C/C(C)=N/NC(=O)Cc2ccccc2)c(OC)cc1Cl,inactive: 5.12%,–
COc1ccc(NC(=O)C2CCC(CNc3c(N4CCC(C)CC4)c(=O)c3=O)CC2)cc1OC (stereo not drawn),inactive: -3.99%,–
N#Cc1c(F)cccc1N1CCN(Cc2ccc3c(c2)OCO3)CC1,inactive: -0.177%,–
CC(C)c1ccc(CNc2nc3nc4c(c(=O)n3[nH]2)CCC4)cc1,inactive: -8.15%,–
CC(=O)c1cccc(NC(=O)CSc2nnc(C(C)N(C)C)n2Cc2ccccc2)c1 (stereo not drawn),inactive: 17%,–
CN(c1ccccc1)S(=O)(=O)c1cccc(NC(=O)C2CCCO2)c1 (stereo not drawn),inactive: -21.6%,–
COCCn1nnnc1C(c1ccccc1OC)N1CCN(C(=O)c2ccco2)CC1 (stereo not drawn),inactive: -7.24%,–
O=C1COc2ccc(C(=O)C[n+]3cccc(O)c3)cc2N1,inactive: 23.6%,–
Cc1ccc2c(Cl)c(C(=O)N/N=C/c3cccn3C)sc2c1,inactive: 6.14%,–
O=C(C/C=N\OCc1ccc(Cl)cc1Cl)Nc1ccccc1,inactive: -12.5%,–
COc1ccc(S(=O)(=O)NC(=O)C2(C)CCN2C(=O)Cc2cccc3ccccc23)cc1 (stereo not drawn),inactive: 12.6%,–
CC(C)CCN1CCN(Cc2ccon2)CC1CCO (stereo not drawn),inactive: 8.9%,–
O=C(O)c1ccc(-c2ccc(/C=c3/sc4nc5ccccc5n4c3=O)o2)cc1Cl,inactive: -6.28%,–
NS(=O)(=O)c1ccc(NC(=O)c2cccc(N3C(=O)c4ccccc4C3=O)c2)cc1,inactive: 5.9%,–
Nc1[nH]c(N=NC(=O)c2ccc(Cl)cc2)c2ccccc12,inactive: -14.8%,–
Nc1ncnc2nc(SCc3ccccc3)[nH]c12,inactive: -15.2%,–
Cc1ccc(-c2csc(NC(=O)CCNC(=O)c3ccc(Cl)cc3)n2)cc1,inactive: 20.6%,–
CC(=O)c1ccc(N2CCC(C(=O)O)CC2)cc1,inactive: 12.9%,–
CC1CCCN(C(=O)COc2ccc(-c3ccccc3)cc2)C1 (stereo not drawn),–,active: 11.2 µM

SMILES,growth rescue (activation),Potency
O=C(CSc1nnc(-c2c[nH]c3ccccc23)n1CC1CCCO1)Nc1ccc2c(c1)OCCO2 (stereo not drawn),inactive: -5.65%,–
CCC(C(=O)NC1CCCC1)N(Cc1ccco1)C(=O)CNS(=O)(=O)c1ccccc1 (stereo not drawn),inactive: -13.3%,–
CCN(CC)S(=O)(=O)c1cccc(NC(=O)CC2CCCC2)c1,inactive: -19.4%,–
COc1cccc(C(c2sc3nc(C)nn3c2O)N2CCC3(CC2)OCCO3)c1 (stereo not drawn),inactive: 4.39%,–
CN(C)S(=O)(=O)c1ccc(NC(=O)CCNC(=O)c2ccc([N+](=O)[O-])cc2)cc1,inactive: 0.375%,–
CCCn1nnnc1SCC(=O)N1CCCCC1,inactive: -1.47%,–
c1ccc(Cn2c(NCc3ccncc3)nc3ccccc32)cc1,inactive: -1.64%,–
COc1ccccc1NC(=O)c1c(Nc2ccccc2C)sc(C(=O)Nc2cccc(Cl)c2)c1N,inactive: -33%,–
COc1ccc(CCNc2nc(-c3cccc(NC(C)=O)c3)cs2)cc1OC,inactive: 3.78%,–
O=C(NCc1ccco1)c1ccccc1-c1nc(-c2ccc(F)cc2)no1,inactive: -11.1%,–
COc1cc(-c2cnc3c(NC=O)cc(-c4cccc(NC(C)=O)c4)cn23)cc(OC)c1OC,inactive: -6.49%,–
CC1CN(c2nc3ccccn3c(=O)c2/C=C(\C#N)C(N)=O)CC(C)O1 (stereo not drawn),inactive: -0.426%,–
CCOC(=O)N1CCN(c2nc(-c3ccccc3)c3ccccc3n2)CC1,inactive: 7.65%,–
CCc1nnc2sc(-c3ccc(NC(=O)c4ccc5c(c4)OCCO5)cc3)nn12,inactive: 10%,–
O=C(NCCC(=O)N1CCN(C(=O)c2ccco2)CC1)c1ccccc1Cl,inactive: 12.6%,–
Cc1c(Cl)cccc1NC(=O)CCCn1nc([N+](=O)[O-])cc1C,inactive: -5.54%,–
COc1ccc(-c2nnc(N(C)C(=O)c3ccco3)s2)cc1OC,inactive: -0.852%,–
COc1cc(SC)ccc1C(=O)OCC(=O)N1CC(=O)Nc2ccccc21,inactive: -11.1%,–
COc1ccccc1CNC(=O)C1CCN(C(=O)c2sccc2-n2cccc2)CC1,inactive: 7.44%,–
O=c1c(Cl)c(N2CCN(c3ccccc3)CC2)cnn1C12CC3CC(CC(C3)C1)C2,inactive: -0.134%,–
CCn1cc(-c2cc(C(=O)O)c3ccccc3n2)cn1,inactive: -16.3%,–
COC(=O)CSc1nnc(-c2ccc(OC)c(OC)c2)o1,inactive: 2.29%,–
CCOC(=O)c1c(NC(=O)CNCC(O)CO)sc(C)c1C (stereo not drawn),inactive: 4.99%,–

SMILES,growth rescue (activation),Potency
O=C(Cc1ccc(Br)cc1)NCCc1ccc(Cl)cc1Cl,inactive: 3.46%,–
O=C(COC(=O)c1ccc(O)cc1)NCc1ccc2c(c1)OCO2,inactive: 11.2%,–
COc1ccc(NC(=O)CN(C)C2CCCCC2)c([N+](=O)[O-])c1,inactive: 16.7%,–
CSc1ccc(S(=O)(=O)N2CCC(C(=O)NCc3cccnc3)CC2)cc1,inactive: -6.77%,–
Cc1nn(CC(=O)N2CCc3ccccc3C2)c(C)c1[N+](=O)[O-],inactive: 11.7%,–
Cc1ccc(C)c2c1cc(C)c1nnc(SCC(=O)NCc3ccc4c(c3)OCO4)n12,inactive: 19%,–
Cc1ccc(-c2cc(C(=O)NC3CCCC3)no2)cc1,inactive: -2.6%,–
CC(C)n1nnnc1SCC(=O)NCc1ccco1,inactive: 8.61%,–
COc1cccc(/C=C/C(=O)OCC(=O)Nc2ccccc2Sc2ccccc2)c1,inactive: 14.6%,–
CC(NC(=O)c1ccco1)c1nc(-c2ccccc2)no1 (stereo not drawn),inactive: 9.41%,–
COc1cc(/C=N/NC(=O)CSc2n[nH]c(=O)[nH]c2=O)cc(OC)c1O,inactive: -3.99%,–
CN(C)c1nc2c(c(=O)n(C)c(=O)n2C)n1CC(=O)c1cccs1,inactive: -17.4%,–
CC(=O)N1CCN(c2ccc(S(=O)(=O)NCCN(C(C)C)C(C)C)cc2[N+](=O)[O-])CC1,inactive: 9.42%,–
Cc1ccc(CNC(=O)C2CCCN(c3nc4ccsc4c(=O)s3)C2)cc1 (stereo not drawn),inactive: 3.1%,–
CN(C)c1ccc(C(=O)N2CCCC2)cc1,inactive: 4.11%,–
COc1cc(C(=O)Nc2ccc3c(c2)N(C(=O)CCN(C)C)c2ccccc2CC3)cc(OC)c1OC,inactive: 19.6%,–
O=C(CCNS(=O)(=O)c1ccc(Br)s1)NCc1ccc(F)cc1,inactive: -3.56%,–
S=C(NCC1CCCO1)NC1CC1 (stereo not drawn),inactive: -1.26%,–
Cc1ccc(S(=O)(=O)NCC2CCC(C(=O)NCc3cccs3)CC2)cc1 (stereo not drawn),inactive: -3.55%,–
COc1ccc(C(=O)CC(=O)C(=O)Nc2cccc([N+](=O)[O-])c2C)cc1,inactive: -30.1%,–
O=[N+]([O-])c1ccc(S(=O)(=O)N(CCCN2CCOCC2)Cc2cccs2)cc1,inactive: -1.59%,–
CCCNC(=O)c1cc(C2CCCCN2C(=O)c2ccc(NC(C)=O)cc2)on1 (stereo not drawn),inactive: 17.2%,–
